The supplement of paper PMC8728848
The other results are listed elsewhere or left out.

Assays:
Experiment in all cases: glycan array binding signal (z-score within array); higher = stronger binding
Conditions in all cases: glycan notation: IUPAC condensed, linker removed
[1] = molecular target: Neu5Ac(a2-3)Gal6S(b1-4)[Fuc(a1-3)]GlcNAc
Procedure, shortened: (§1)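 The binding signal is a Z-score computed within each array. Data were drawn from 3228 arrays in the Consortium for Functional Glycomics database, restricted to those with a known protein sequence. Scores were averaged over arrays of the same protein sequence at different concentrations or buffers, and over linkers, and negative values can be taken as non-binding.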

Neu5Ac(a2-3)GalNAc = molecular target: Neu5Ac(a2-3)GalNAc
Procedure, shortened: as §1

[2] = molecular target: Neu5Ac(a2-3)GalNAc(b1-4)GlcNAc
Procedure, shortened: as §1

[3] = molecular target: Neu5Ac(a2-3)[GalNAc(b1-4)]Gal(b1-4)Glc
Procedure, shortened: as §1

[4] = molecular target: Neu5Ac(a2-3)[GalNAc(b1-4)]Gal(b1-4)GlcNAc
Procedure, shortened: as §1

[5] = molecular target: Neu5Ac(a2-3)[GalNAc(b1-4)]Gal(b1-4)GlcNAc(b1-3)GalNAc
Procedure, shortened: as §1

[6] = molecular target: Neu5Ac(a2-3)[Neu5Ac(a2-6)]GalNAc
Procedure, shortened: as §1

Neu5Ac(a2-6)Gal = molecular target: Neu5Ac(a2-6)Gal
Procedure, shortened: as §1

[7] = molecular target: Neu5Ac(a2-6)Gal(b1-3)GlcNAc(b1-3)[Gal(b1-4)GlcNAc(b1-6)]Gal(b1-4)Glc
Procedure, shortened: as §1

Neu5Ac(a2-6)Gal(b1-4)Glc = molecular target: Neu5Ac(a2-6)Gal(b1-4)Glc
Procedure, shortened: as §1

[8] = molecular target: Neu5Ac(a2-6)Gal(b1-4)GlcNAc
Procedure, shortened: as §1

[9] = molecular target: Neu5Ac(a2-6)Gal(b1-4)GlcNAc(b1-2)Man
Procedure, shortened: as §1

[10] = molecular target: Neu5Ac(a2-6)Gal(b1-4)GlcNAc(b1-2)Man(a1-3)Man(b1-4)GlcNAc(b1-4)GlcNAc
Procedure, shortened: as §1

[11] = molecular target: Neu5Ac(a2-6)Gal(b1-4)GlcNAc(b1-2)Man(a1-3)[Gal(b1-4)GlcNAc(b1-2)Man(a1-6)]Man(b1-4)GlcNAc(b1-4)GlcNAc
Procedure, shortened: as §1

[12] = molecular target: Neu5Ac(a2-6)Gal(b1-4)GlcNAc(b1-2)Man(a1-3)[GlcNAc(b1-2)Man(a1-6)]Man(b1-4)GlcNAc(b1-4)GlcNAc
Procedure, shortened: as §1

[13] = molecular target: Neu5Ac(a2-6)Gal(b1-4)GlcNAc(b1-2)Man(a1-3)[GlcNAc(b1-4)][Neu5Ac(a2-6)Gal(b1-4)GlcNAc(b1-2)Man(a1-6)]Man(b1-4)GlcNAc(b1-4)GlcNAc
Procedure, shortened: as §1

[14] = molecular target: Neu5Ac(a2-6)Gal(b1-4)GlcNAc(b1-2)Man(a1-3)[Man(a1-6)]Man(b1-4)GlcNAc(b1-4)GlcNAc
Procedure, shortened: as §1

[15] = molecular target: Neu5Ac(a2-6)Gal(b1-4)GlcNAc(b1-2)Man(a1-3)[Neu5Ac(a2-3)Gal(b1-4)GlcNAc(b1-2)Man(a1-6)]Man(b1-4)GlcNAc(b1-4)GlcNAc
Procedure, shortened: as §1

[16] = molecular target: Neu5Ac(a2-6)Gal(b1-4)GlcNAc(b1-2)Man(a1-3)[Neu5Ac(a2-6)Gal(b1-4)GlcNAc(b1-2)Man(a1-6)]Man(b1-4)GlcNAc(b1-4)GlcNAc
Procedure, shortened: as §1

[17] = molecular target: Neu5Ac(a2-6)Gal(b1-4)GlcNAc(b1-2)Man(a1-3)[Neu5Ac(a2-6)Gal(b1-4)GlcNAc(b1-2)Man(a1-6)]Man(b1-4)GlcNAc(b1-4)[Fuc(a1-6)]GlcNAc
Procedure, shortened: as §1

[18] = molecular target: Neu5Ac(a2-6)Gal(b1-4)GlcNAc(b1-2)Man(a1-6)Man(b1-4)GlcNAc(b1-4)GlcNAc
Procedure, shortened: as §1

[19] = molecular target: Neu5Ac(a2-6)Gal(b1-4)GlcNAc(b1-2)Man(a1-6)[Gal(b1-4)GlcNAc(b1-2)Man(a1-3)]Man(b1-4)GlcNAc(b1-4)GlcNAc
Procedure, shortened: as §1

B1: PFL (Pseudomonas fluorescens) (protein)
chain: MSKYAVANQWGGSSAPWHPGGTWVLGARDNQNVVAIEIKSGDGGKSFTGTMTYAGEGPIGFKAQRTGQNQYNVENQWGGNDAPWHPGGKWVIGGRDNQNVIALSVTSSDGGKNLSGTNTYANEGPIGFRGQIE
[1]
  glycan array binding signal (z-score): -0.114
Neu5Ac(a2-3)GalNAc
  glycan array binding signal (z-score): -0.117
[2]
  glycan array binding signal (z-score): -0.109
[3]
  glycan array binding signal (z-score): -0.116
[4]
  glycan array binding signal (z-score): -0.117
[5]
  glycan array binding signal (z-score): -0.111
[6]
  glycan array binding signal (z-score): -0.117
Neu5Ac(a2-6)Gal
  glycan array binding signal (z-score): -0.111
[7]
  glycan array binding signal (z-score): -0.116
Neu5Ac(a2-6)Gal(b1-4)Glc
  glycan array binding signal (z-score): -0.113
[8]
  glycan array binding signal (z-score): -0.118
[9]
  glycan array binding signal (z-score): -0.113
[10]
  glycan array binding signal (z-score): -0.112
[11]
  glycan array binding signal (z-score): -0.119
[12]
  glycan array binding signal (z-score): 0.313
[13]
  glycan array binding signal (z-score): -0.117
[14]
  glycan array binding signal (z-score): -0.114
[15]
  glycan array binding signal (z-score): -0.107
[16]
  glycan array binding signal (z-score): -0.114
[17]
  glycan array binding signal (z-score): -0.103
[18]
  glycan array binding signal (z-score): -0.117
[19]
  glycan array binding signal (z-score): -0.116
